Measured values as given in the supplement of paper PMC9151546.
Most values come without repeats; read them as rough.

Experiments:
CHO-K1 [1] = experiment: micronucleus frequency (% of nucleated events); higher = more micronuclei (genotoxic)
CHO-K1 [2] = experiment: hypodiploid nuclei frequency (% of nucleated events); higher = more hypodiploid events (aneugenic)
Experimental: (§1)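 Flow-cytometric in vitro micronucleus assay (Litron MicroFlow) in CHO-K1 cells in 96-well plates, 19 concentrations (4.5-200 µM, n=1 per concentration). Without S9, cells were exposed for 24 h and sampled at 48 h. With Aroclor 1254-induced rat liver S9, cells were exposed for 3-4 h and sampled at 27-28 h. Read-outs are %MN and %hypodiploid nuclei relative to nucleated events, and relative survival as the nuclei-to-bead ratio versus the 1% DMSO vehicle control (x100).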

CHO-K1 [3] = experiment: relative survival (nuclei to bead ratio vs DMSO control) (% of vehicle control); higher = more surviving cells
Experimental: as §1
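Throughout, for hypodiploid nuclei frequency (% of nucleated events): hypodiploid nuclei gated on a flow cytometer with 488 nm excitation after SYTOX Green staining, cultures at 37 °C, positive controls vinblastine without S9 and cyclophosphamide with S9.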
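Throughout, for micronucleus frequency (% of nucleated events): cells lysed with nuclei stained by SYTOX Green, then micronucleus-gated events counted against nucleated events by flow cytometry with 488 nm excitation.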
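Throughout, for relative survival (nuclei to bead ratio vs DMSO control): Lysed-cell nuclei stained with SYTOX Green and counted against counting beads by flow cytometry at 488 nm excitation, with vinblastine (no S9) and cyclophosphamide (plus S9) as positive controls.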

ClCC(Cl)CCl [1,2,3-Trichloropropane]
Conditions | hypodiploid nuclei frequency, CHO-K1 [2] [%] | micronucleus frequency, CHO-K1 [1] [%] | relative survival, CHO-K1 [3]
concentration: 4.5 (µM), S9 metabolic activation: with S9, exposure time: 3-4 hours | 0.12 | 1.12 | 116
concentration: 4.5 (µM), S9 metabolic activation: without S9, exposure time: 24 hours | 0.5 | 0.98 | 120
concentration: 5.63 (µM), S9 metabolic activation: with S9, exposure time: 3-4 hours | 0.14 | 0.94 | 101
concentration: 5.63 (µM), S9 metabolic activation: without S9, exposure time: 24 hours | 0.7 | 1.12 | 123
concentration: 7.04 (µM), S9 metabolic activation: with S9, exposure time: 3-4 hours | 0.22 | 0.8 | 110
concentration: 7.04 (µM), S9 metabolic activation: without S9, exposure time: 24 hours | 0.72 | 1.36 | 110
concentration: 8.8 (µM), S9 metabolic activation: with S9, exposure time: 3-4 hours | 0.22 | 0.64 | 96.7
concentration: 8.8 (µM), S9 metabolic activation: without S9, exposure time: 24 hours | 0.92 | 0.98 | 97.6
concentration: 11 (µM), S9 metabolic activation: with S9, exposure time: 3-4 hours | 0.26 | 0.98 | 113
concentration: 11 (µM), S9 metabolic activation: without S9, exposure time: 24 hours | 1.02 | 1.24 | 104
concentration: 13.7 (µM), S9 metabolic activation: with S9, exposure time: 3-4 hours | 0.1 | 0.84 | 100
concentration: 13.7 (µM), S9 metabolic activation: without S9, exposure time: 24 hours | 0.9 | 1.26 | 118
concentration: 17.2 (µM), S9 metabolic activation: with S9, exposure time: 3-4 hours | 0.36 | 0.84 | 98.5
concentration: 17.2 (µM), S9 metabolic activation: without S9, exposure time: 24 hours | 0.82 | 1.02 | 113
concentration: 21.5 (µM), S9 metabolic activation: with S9, exposure time: 3-4 hours | 0.28 | 1.1 | 94.8
concentration: 21.5 (µM), S9 metabolic activation: without S9, exposure time: 24 hours | 0.74 | 1.06 | 117
concentration: 26.8 (µM), S9 metabolic activation: with S9, exposure time: 3-4 hours | 0.22 | 0.68 | 105
concentration: 26.8 (µM), S9 metabolic activation: without S9, exposure time: 24 hours | 0.86 | 1.42 | 111
concentration: 33.6 (µM), S9 metabolic activation: with S9, exposure time: 3-4 hours | 0.14 | 1.4 | 84
concentration: 33.6 (µM), S9 metabolic activation: without S9, exposure time: 24 hours | 0.72 | 1.3 | 87.3
concentration: 41.9 (µM), S9 metabolic activation: with S9, exposure time: 3-4 hours | 0.18 | 0.9 | 78.1
concentration: 41.9 (µM), S9 metabolic activation: without S9, exposure time: 24 hours | 1.12 | 1.8 | 83.9
concentration: 52.4 (µM), S9 metabolic activation: with S9, exposure time: 3-4 hours | 0.18 | 1.06 | 107
concentration: 52.4 (µM), S9 metabolic activation: without S9, exposure time: 24 hours | 1.16 | 1.92 | 91.4
concentration: 65.5 (µM), S9 metabolic activation: with S9, exposure time: 3-4 hours | 0.2 | 1.06 | 76.5
concentration: 65.5 (µM), S9 metabolic activation: without S9, exposure time: 24 hours | 0.96 | 1.26 | 78.3
concentration: 81.9 (µM), S9 metabolic activation: with S9, exposure time: 3-4 hours | 0.2 | 0.98 | 89
concentration: 81.9 (µM), S9 metabolic activation: without S9, exposure time: 24 hours | 1.3 | 1.48 | 70.9
concentration: 102 (µM), S9 metabolic activation: with S9, exposure time: 3-4 hours | 0.14 | 0.96 | 91.7
concentration: 102 (µM), S9 metabolic activation: without S9, exposure time: 24 hours | 1.12 | 1.3 | 83.6
concentration: 128 (µM), S9 metabolic activation: with S9, exposure time: 3-4 hours | 0.32 | 0.8 | 101
concentration: 128 (µM), S9 metabolic activation: without S9, exposure time: 24 hours | 1.7 | 1.38 | 78.8
concentration: 160 (µM), S9 metabolic activation: with S9, exposure time: 3-4 hours | 0.32 | 1.44 | 71.3
concentration: 160 (µM), S9 metabolic activation: without S9, exposure time: 24 hours | 1.82 | 1.62 | 77.3
concentration: 200 (µM), S9 metabolic activation: with S9, exposure time: 3-4 hours | 0.22 | 1.18 | 75.2
concentration: 200 (µM), S9 metabolic activation: without S9, exposure time: 24 hours | 1.92 | 2.06 | 82.3

CCCOC(=O)c1ccc(O)cc1 [Propylparaben]
Conditions | hypodiploid nuclei frequency, CHO-K1 [2] [%] | micronucleus frequency, CHO-K1 [1] [%] | relative survival, CHO-K1 [3]
concentration: 4.5 (µM), S9 metabolic activation: with S9, exposure time: 3-4 hours | 0.38 | 1.92 | 111
concentration: 4.5 (µM), S9 metabolic activation: without S9, exposure time: 24 hours | 0.5 | 2.02 | 138
concentration: 5.63 (µM), S9 metabolic activation: with S9, exposure time: 3-4 hours | 0.3 | 2.38 | 120
concentration: 5.63 (µM), S9 metabolic activation: without S9, exposure time: 24 hours | 0.42 | 1.94 | 128
concentration: 7.04 (µM), S9 metabolic activation: with S9, exposure time: 3-4 hours | 0.36 | 2.94 | 101
concentration: 7.04 (µM), S9 metabolic activation: without S9, exposure time: 24 hours | 0.52 | 1.96 | 120
concentration: 8.8 (µM), S9 metabolic activation: with S9, exposure time: 3-4 hours | 0.32 | 2.22 | 116
concentration: 8.8 (µM), S9 metabolic activation: without S9, exposure time: 24 hours | 0.52 | 2.06 | 123
concentration: 11 (µM), S9 metabolic activation: with S9, exposure time: 3-4 hours | 0.3 | 2.16 | 119
concentration: 11 (µM), S9 metabolic activation: without S9, exposure time: 24 hours | 0.68 | 2.02 | 114
concentration: 13.7 (µM), S9 metabolic activation: with S9, exposure time: 3-4 hours | 0.22 | 2.18 | 119
concentration: 13.7 (µM), S9 metabolic activation: without S9, exposure time: 24 hours | 0.38 | 1.88 | 109
concentration: 17.2 (µM), S9 metabolic activation: with S9, exposure time: 3-4 hours | 0.18 | 3.16 | 120
concentration: 17.2 (µM), S9 metabolic activation: without S9, exposure time: 24 hours | 0.4 | 1.68 | 105
concentration: 21.5 (µM), S9 metabolic activation: with S9, exposure time: 3-4 hours | 0.16 | 1.62 | 114
concentration: 21.5 (µM), S9 metabolic activation: without S9, exposure time: 24 hours | 0.56 | 2.86 | 95.5
concentration: 26.8 (µM), S9 metabolic activation: with S9, exposure time: 3-4 hours | 0.36 | 1.68 | 97.3
concentration: 26.8 (µM), S9 metabolic activation: without S9, exposure time: 24 hours | 0.62 | 1.32 | 88.2
concentration: 33.6 (µM), S9 metabolic activation: with S9, exposure time: 3-4 hours | 0.4 | 1.06 | 85.6
concentration: 33.6 (µM), S9 metabolic activation: without S9, exposure time: 24 hours | 0.74 | 1.36 | 118
concentration: 41.9 (µM), S9 metabolic activation: with S9, exposure time: 3-4 hours | 0.1 | 1.58 | 104
concentration: 41.9 (µM), S9 metabolic activation: without S9, exposure time: 24 hours | 0.66 | 1.56 | 96.4
concentration: 52.4 (µM), S9 metabolic activation: with S9, exposure time: 3-4 hours | 0.28 | 1.8 | 104
concentration: 52.4 (µM), S9 metabolic activation: without S9, exposure time: 24 hours | 0.44 | 1.92 | 79
concentration: 65.5 (µM), S9 metabolic activation: with S9, exposure time: 3-4 hours | 0.32 | 1.94 | 103
concentration: 65.5 (µM), S9 metabolic activation: without S9, exposure time: 24 hours | 0.58 | 1.52 | 80.3
concentration: 81.9 (µM), S9 metabolic activation: with S9, exposure time: 3-4 hours | 0.42 | 2.12 | 115
concentration: 81.9 (µM), S9 metabolic activation: without S9, exposure time: 24 hours | 0.68 | 1.56 | 76.6
concentration: 102 (µM), S9 metabolic activation: with S9, exposure time: 3-4 hours | 0.3 | 1.34 | 123
concentration: 102 (µM), S9 metabolic activation: without S9, exposure time: 24 hours | 0.86 | 1.84 | 92.3
concentration: 128 (µM), S9 metabolic activation: with S9, exposure time: 3-4 hours | 0.18 | 1.4 | 110
concentration: 128 (µM), S9 metabolic activation: without S9, exposure time: 24 hours | 0.82 | 1.86 | 83
concentration: 160 (µM), S9 metabolic activation: with S9, exposure time: 3-4 hours | 0.22 | 1.14 | 105
concentration: 160 (µM), S9 metabolic activation: without S9, exposure time: 24 hours | 0.98 | 1.74 | 67.4
concentration: 200 (µM), S9 metabolic activation: with S9, exposure time: 3-4 hours | 0.38 | 1.8 | 158
concentration: 200 (µM), S9 metabolic activation: without S9, exposure time: 24 hours | 1.04 | 2.76 | 66.1
